The list shows a part of the results.

Sequences and labels used below:
T1: UNK ZnF1-3 (human, UniProt Q9C0B0 31-174)
T1 sequence: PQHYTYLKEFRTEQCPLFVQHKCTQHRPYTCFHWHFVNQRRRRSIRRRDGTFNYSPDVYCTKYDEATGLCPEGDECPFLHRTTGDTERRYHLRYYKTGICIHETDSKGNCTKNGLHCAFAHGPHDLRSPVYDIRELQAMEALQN

B1: 84634214_84644336_917_CDS_ENSG00000065615_ENST00000369681|human|control|control (ssRNA)
RNA: GGGAGUUCUACAGUCCGACGAUCCUGGCACUUUCUGUAGUACAAACCUGUAUCUUUCCUUGGAAUAAGUGAAUUAUGAUUCUUCAGGGGAUGGCCAAGAAAGUCCCAAGAAGUAUUCUCUUUUUUUUGUAGAACAAUCUCUAUCAACAGAGGAUUGAGCAUCA
B2: 13734483_13737013_542_CDS_ENSG00000101654_ENST00000262173|human|control|control (ssRNA)
RNA: GGGAGUUCUACAGUCCGACGAUCUUCUCCAAUGAGAACACUUUUCAUCCAAUUAUUAAAGUUUCUUAGGUAAAAAAUACGACUUUGACUACGCUUCUCCAAACCAACUUCCUGAAGUUCAUUGUAAUGGGCAGCCACUGUUGACAACAGAGGAUUGAGCAUCA
B3: chr7:66532262:66532263:+_ENSMUSG00000025326_ENSMUST00000107537|mus_mus|FALSE|FALSE (ssRNA)
RNA: GGGAGUUCUACAGUCCGACGAUCUCCUUGAACUAGGCUGUAAAGAACAGUGAUUCUUCUUUCACUGUACAUGCGAAUUCUAUUGUCAUAAUAUAAUCCCAGAUUCUUUGUGACAGCAUUCAAUAUAAAGGGACAUGUCAUAAACAACAGAGGAUUGAGCAUCA
B4: 89150025_89150145_181_3pUTR_ENSG00000065243_ENST00000370521|human|control|control (ssRNA)
RNA: GGGAGUUCUACAGUCCGACGAUCAGGGAUUCAUGGAGGCGCAGCCCCUGCUGGAGGCGCGGCUUAUUCCGUCCGGUUCAUCGAGAGCGGCGGGGAGCUAGGGCACUCGUAGCGGGCUUCCUCUCGCCGCCCUCACCGGACUGUCAACAGAGGAUUGAGCAUCA
B5: chr3:179287964:179287965:+_ENSG00000136518_ENST00000429709|hu_hu|hu_hu_hu_mus_True|1_1 (ssRNA)
RNA: GGGAGUUCUACAGUCCGACGAUCCUUGAGUGGUGAGAUGGCCUCCAUGUUCUCCCUGGGCACGCGGAGGGCAUUGGUGUCUAUGUAGUAGGUGGGCCCGCCCUGCUUGCCUUUGUCACCAUCAAUCUCCAUCAUUGUGCUUCCCAACAGAGGAUUGAGCAUCA
B6: chr1:46159212:46159213:+_ENSG00000159596_ENST00000372025|hu_mus|hu_hu_hu_mus_True|28_88 (ssRNA)
RNA: GGGAGUUCUACAGUCCGACGAUCUCUGAUCCCUCCCAAGAAAGCUAGGAAACUGGCUCCAUAAGCCAUCUGAGUGAAAGCUAGGACGGGGAUAUAAGACUUUGUUAUCAGCAUGACAAGUGGGGGAGCAGUAAAGGGGAUUAACAACAGAGGAUUGAGCAUCA
B7: chr4:53728692:53728693:+_ENSG00000128045_ENST00000248706|hu_mus|FALSE|FALSE (ssRNA)
RNA: GGGAGUUCUACAGUCCGACGAUCCAGGCAGCAGUCGGCAGCGGUGCUGCCUGGGGCGGGGUACUCUGCGAUGGUACACAUGUUCUGGAUGAGGCGCAUCGCCGCUACGGCCCGGCUGCACGGAGCGGGGAGGAAAGUCAGGACCAACAGAGGAUUGAGCAUCA
B8: 71651039_71651159_4769_CDS_ENSG00000075292_ENST00000264447|human|control|control (ssRNA)
RNA: GGGAGUUCUACAGUCCGACGAUCGCUGUCAUCCCGUUUCAUGAUGGAAGGUCUAGCCUCUGUUUCCUGAGAUUGUUUUGUUAUAUCUCUGUAAUCCAGUUUAGAAAGCUUGCCUUGCAGGGCUGAGAUCCUUCCACUGCCUCCCAACAGAGGAUUGAGCAUCA
B9: chr6:86333760:86333761:-_ENSG00000135316_ENST00000355238|hu_mus|FALSE|FALSE (ssRNA)
RNA: GGGAGUUCUACAGUCCGACGAUCUUCCUCAAGAAUCUGCUCCUUGGUUUUACUCUUAGGAAUCGAGCCCACAAAAAGCCUAUUGUUGGCAACUGAGAUGCAGACACCAAUGUGCUUCCCGGAACGAAUUUCAUGAUUAUUAUACAACAGAGGAUUGAGCAUCA
B10: chr2:29787112:29787113:+_ENSMUSG00000026790_ENSMUST00000113756|mus_mus|FALSE|FALSE (ssRNA)
RNA: GGGAGUUCUACAGUCCGACGAUCGCAAUGAGAUAGGAAUUCUGAUUGUCAGGCCGGAUGGUCGUGAGGAACAAGUGGCCUAUAGGAAACAGACAUGGGAGGUUUCCCCGGGCACCAAGGAGAACACUGCUUCCUGCAGGACCCCAACAGAGGAUUGAGCAUCA
B11: chr6:83927055:83927056:+_ENSMUSG00000030016_ENSMUST00000032088|mus_mus|motif|central (ssRNA)
RNA: GGGAGUUCUACAGUCCGACGAUCUGUACUUUUUGCUUUAGGAGAAGAGACCACAGUAGCCUUGAUGCUUGAUUUACGGCGGUAUACAUUUGAUACAGUCAGCACACUACUUUUACCAGUUUCAUCAGGCUUACUGGUCUGAUCCAACAGAGGAUUGAGCAUCA
B12: chr12:16048344:16048345:+_ENSG00000023734_ENST00000419869|hu_hu|hu_hu_hu_mus_True|8_58 (ssRNA)
RNA: GGGAGUUCUACAGUCCGACGAUCAGAUCGUCCAUAAGUAAUAACCAAAAUCUCUCCUUCAGGAAUAUACUCCAUGCUACUAACAGACAUAUUAAAAUUCAGAGAUUUCACUUCUGUCAUUGUGGCAUGAUCCCAAAGCCGAACCAACAGAGGAUUGAGCAUCA
B13: chr7:151048522:151048523:+_ENSG00000013374_ENST00000566856|hu_mus|hu_hu_hu_mus_True|18_108 (ssRNA)
RNA: GGGAGUUCUACAGUCCGACGAUCCUGCUUCUUAUUUAUUACGAUCUUGAUGUAAUUUUCUUGAAAUCCGAAAGUUUCAGCUAUUUGACACCUCAGGUCUCUACCAGUGACAUGCAAUCGGGUCUCCAACAAGCUUUUCUUAUCCAACAGAGGAUUGAGCAUCA
B14: chrX:140365796:140365797:-_ENSMUSG00000031285_ENSMUST00000033642|mus_mus|mus_mus_mus_hu_False|8_108 (ssRNA)
RNA: GGGAGUUCUACAGUCCGACGAUCCUUCUCAUUACUUAGUGCCUGCAAGGUUCUGGUUCGGUAGAAGCUACAGUGGGCGCUGUGAGUGGGGCUAGGCAACCCAUUCAUCCGGGAGCCUCGCAUGUUCCUAGAUGCUUUAUCUCUCAACAGAGGAUUGAGCAUCA
B15: chr14:89305849:89305850:+_ENSG00000165533_ENST00000346301|hu_mus|motif|central (ssRNA)
RNA: GGGAGUUCUACAGUCCGACGAUCAGCAUUUUCAUCCAGGAUCAUUUCAGCAAUUCCUUCCUGGUCCACAUCAAUUUCAUCGGUGUACACCAUCUCUGUCAGCGCCCGUGCUUUCAAAAUCCAAGCCGCCUGAUCAUAAGGGGACAACAGAGGAUUGAGCAUCA
B16: 55394983_55397375_5385_CDS_ENSMUSG00000021488_ENSMUST00000099490|mouse|control|control (ssRNA)
RNA: GGGAGUUCUACAGUCCGACGAUCAGGAUGGCAGAUCUCAGCUGGCCACCACCUGUAGCGACCAACUUUUACCCAGACAAUCUCCCUGUAGUGUGGCUUUUUGCCUGCCUUACAGUCAUUGCAGUACCAAUUUCCUUCAGGGAUCAACAGAGGAUUGAGCAUCA
B17: chr4:17845017:17845018:+_ENSG00000109805_ENST00000514176|hu_mus|hu_hu_hu_mus_False|58_78 (ssRNA)
RNA: GGGAGUUCUACAGUCCGACGAUCGCUCUCUUAACUUGUAUCUUCAUUAAGGAACUCGCAAGGUUAAAGUUUACUUUUUCUAGUGCUAGCUGUUUUGGCUCGUCUGGGUAAUCUCAUCUUCAUUUCUGAUGGUGGUUCAUGAUCCAACAGAGGAUUGAGCAUCA
B18: chr11:97022710:97022711:-_ENSMUSG00000001440_ENSMUST00000001479|mus_mus|motif|central (ssRNA)
RNA: GGGAGUUCUACAGUCCGACGAUCCACUUUAAAAAAUUACUAAAGCGUGCGAGCAGGGUCACCAUCUGACACCAUUUUACGGAUCUUCAACUUCAGUGGAAAAAUAGAGCCUUCUUCCUGGUGCCAUUUUCAUCACAACAGUUGCAACAGAGGAUUGAGCAUCA
B19: chr19:56882518:56882519:-_ENSMUSG00000035173_ENSMUST00000118592|mus_mus|FALSE|FALSE (ssRNA)
RNA: GGGAGUUCUACAGUCCGACGAUCCUGAGACAGCUGCUUAAUUUUGUUAGUGUUUUUCUCCAAUUCCUUACUUGCAUCUCUAAGUUUCCUCUCAAGGGUUUCUUUUUCCUUUCGCAGGUCUAGAGCCUCCUUCUCGCCUCUCACCAACAGAGGAUUGAGCAUCA
B20: chr11:9452432:9452433:+_ENSG00000205339_ENST00000379719|hu_mus|motif|central (ssRNA)
RNA: GGGAGUUCUACAGUCCGACGAUCAAAUGUCAUUGCCAGAUGUUGUGUCAUUUCUACAGCAAUAGGAGUAACUUCUUCACGGUAUUCACAGAUCAUUUUCUGAAUUACAUUUGUAAGAUCAUCAUUUUCUGUUUCUCUUAUAAUCAACAGAGGAUUGAGCAUCA
B21: chr15:84030238:84030239:+_ENSMUSG00000022437_ENSMUST00000023071|mus_mus|FALSE|FALSE (ssRNA)
RNA: GGGAGUUCUACAGUCCGACGAUCGUUUCCAACCAUGGUGUUGUAACUGCCCGUCAGUCUCCUCAGCUCUGUCACUUCAAAGGUGACAUCUAACCCAUUGGGCAGGGCAUCUUCACCAUGACAUGUAUCGAUCAAAACAUCCACCAACAGAGGAUUGAGCAUCA
B22: 35299762_35309300_591_3pUTR_ENSG00000101079_ENST00000349004|human|control|control (ssRNA)
RNA: GGGAGUUCUACAGUCCGACGAUCAAAAUAAUGUCCACAACAUUGGUUGUCAGGCCAGAGAGUUUGGAAGCUGCCCAGUCAAUCCAGCCUUUAGCGCAAGGGUCAACAUUAAUGAGCACAAGGCCUUCCACAAGCUCUGGAUGGCAACAGAGGAUUGAGCAUCA

This assay concerns the target T1, UNK ZnF1-3. The experiment in a line: nsRBNS (natural sequence RNA bind-n-seq); RBNS binding buffer (assumed for nsRBNS): 25 mM Tris pH 7.5, 150 mM KCl, 3 mM MgCl2, 0.01% Triton X-100, 500 ug/ml BSA, 20 U/ml SUPERase-In, 4 C; UNK is unkempt and MSI1 is Musashi-1; names of the RNAs are library labels; protein concentration not given here; high values mean tight binding.
For B1, the binding signal worked out at 0.802 enrichment R. To B2 belongs 1.41 enrichment R; to B3, 0.599 enrichment R.

In turn, B4 returned a binding signal of 0.513 enrichment R. B5 displayed a binding signal of 0.64 enrichment R. Consider B6, for which the binding signal turned out to be 1.39 enrichment R. As to B7, the binding signal was 1.44 enrichment R. B8 returned a binding signal of 0.553 enrichment R. Take B9: the binding signal was determined as 1.14 enrichment R. To B10 belongs 1.04 enrichment R; to B11, 0.684 enrichment R; to B12, 0.737 enrichment R. On to B13, for which the binding signal is 0.658 enrichment R. The value for B14 was 0.682 enrichment R; that for B15 was 1.63 enrichment R. Take B16: the binding signal was 0.329 enrichment R. To B17 belongs 0.375 enrichment R; to B18, 1.13 enrichment R. The molecule B19 showed a binding signal of 0.446 enrichment R.

Take B20: the binding signal was 0.582 enrichment R. The molecule B21 came in with a binding signal of 0.736 enrichment R. B22 displayed a binding signal of 1.27 enrichment R.

Source of the values: paper PMC12136788.
